According to paper PMC5892938:
This is one part of the list. At the low end of the ranking, values are background and their order means little.

Molecular target: GST-SBP-SLBP (stem-loop binding protein) (UniProt Q14493)
Assay: targeted RNA Bind-n-Seq;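 also: DESeq read counts versus GST-SBP nonspecific binding control pulldown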
Conditions: RBNS binding buffer: 25 mM Tris pH 7.5, 150 mM KCl, 3 mM MgCl2, 0.1% Tween, 0.5 mg/mL BSA, 1 mM DTT; 27 nM protein, 750 pM RNA pool; temperature not stated; high values mean tight binding

| Sequence | binding signal (log2 fold change) |
| --- | --- |
| GGUCACGUCUCAAUCAACUCAAUGUCAGGAGUUUUCUCCUGUAAAUUCAACAGCUCGCAGUCAAG | -0.0312 |
| GGUCACGUCUCAAUCAACUCAACUUCCAGGGAAAUCCCUGGCAAUCUCAACAGCUCGCAGUCAAG | 0.126 |
| GGUCACGUCUCAAUCAACUCAGUCCCCAGGGAAACCCCUGGUUUAUUCAACAGCUCGCAGUCAAG | -0.284 |
| GGUCACGUCUCAAUCAACUCAUUUCCCAGGGAAAUCCCUGGCUUUCUCAACAGCUCGCAGUCAAG | 0.169 |
| GGUCACGUCUCAAUCAACUCAAUCCCCAGGGAAAACCCUGGUUAUCUCAACAGCUCGCAGUCAAG | 0.0531 |
| GGUCACGUCUCAAUCAACUCAUCUCCCAGGGAAAGCCCUGGCAAUCUCAACAGCUCGCAGUCAAG | -0.135 |
| GGUCACGUCUCAAUCAACUCUUCUUCCAGGGAAAUCCCUGGCAUUUUCAACAGCUCGCAGUCAAG | -0.0522 |
| GGUCACGUCUCAAUCAACUCACCCGAGGGGGGGAAAACCCCUUUACCCUCAUUAUCAACAGCUCGCAGUCAAG | 0.251 |
| GGUCACGUCUCAAUCAACUCUUCCUCCAGGGAAAGCCCUGGUUUUUUCAACAGCUCGCAGUCAAG | -0.166 |
| GGUCACGUCUCAAUCAACUCAACGCCAGGAGUUUACUCCUGCAAAUUCAACAGCUCGCAGUCAAG | -0.0755 |
| GGUCACGUCUCAAUCAACUCUUUUUCCAGGGAAACCCCUGGCUAUCUCAACAGCUCGCAGUCAAG | 0.131 |
| GGUCACGUCUCAAUCAACUCAUUCUCAGGAGUUUACUCCUGCAUAGUCAACAGCUCGCAGUCAAG | 0.00329 |
| GGUCACGUCUCAAUCAACUCCUAAGAGGGGGGGAAAACCCCUUUGCCCUCCAUGUCAACAGCUCGCAGUCAAG | -0.155 |
| GGUCACGUCUCAAUCAACUCAAUCUCCAGGGAAAACCCUGGUAAACUCAACAGCUCGCAGUCAAG | 0.181 |
| GGUCACGUCUCAAUCAACUCUAAGGAGGGGGGGAAAACCCCUUUACCCUCAUACUCAACAGCUCGCAGUCAAG | -0.0232 |
| GGUCACGUCUCAAUCAACUCUUUCCCCAGGGAAAGCCCUGGCAUACUCAACAGCUCGCAGUCAAG | -0.0323 |
| GGUCACGUCUCAAUCAACUCACUAGAGGGGGGGAAAACCCCUUUACCCUCAACAUCAACAGCUCGCAGUCAAG | 0.0365 |
| GGUCACGUCUCAAUCAACUCUUUCUCCAGGGAAAACCCUGGUUAACUCAACAGCUCGCAGUCAAG | 0.127 |
| GGUCACGUCUCAAUCAACUCUCACGAGGGGGGGAAAACCCCUUUACCCUCAUCAUCAACAGCUCGCAGUCAAG | -0.0221 |

| Sequence | binding signal (log2 fold change) |
| --- | --- |
| GGUCACGUCUCAAUCAACUCAACGCCAGGAGUUUUCUCCUGCUAUUUCAACAGCUCGCAGUCAAG | -0.0418 |
| GGUCACGUCUCAAUCAACUCAUCCCCCAGGGAAAACCCUGGUUUAUUCAACAGCUCGCAGUCAAG | -0.152 |
| GGUCACGUCUCAAUCAACUCAGUCUCAGGAGUUUGCUCCUGCAUAUUCAACAGCUCGCAGUCAAG | 0.0927 |
| GGUCACGUCUCAAUCAACUCAAUUCCCAGGGAAAGCCCUGGCUUACUCAACAGCUCGCAGUCAAG | -0.249 |
| GGUCACGUCUCAAUCAACUCAUCCUCCAGGGAAACCCCUGGUAAUCUCAACAGCUCGCAGUCAAG | -0.0848 |
| GGUCACGUCUCAAUCAACUCUUCCUCAGGAGUUUACUCCUGUAUUUUCAACAGCUCGCAGUCAAG | 0.00623 |
| GGUCACGUCUCAAUCAACUCAACUUCCAGGGAAACCCCUGGUAAACUCAACAGCUCGCAGUCAAG | 0.177 |
| GGUCACGUCUCAAUCAACUCUUUCCCAGGAGUUUACUCCUGCUAAUUCAACAGCUCGCAGUCAAG | 0.0344 |
| GGUCACGUCUCAAUCAACUCAUCGCCCAGGGAAACCCCUGGUAUAUUCAACAGCUCGCAGUCAAG | 0.195 |
| GGUCACGUCUCAAUCAACUCUUUCUCAGGAGUUUGCUCCUGCAAUUUCAACAGCUCGCAGUCAAG | 0.0895 |
| GGUCACGUCUCAAUCAACUCUAUUUCCAGGGAAACCCCUGGUUUUCUCAACAGCUCGCAGUCAAG | -0.0664 |
| GGUCACGUCUCAAUCAACUCUCUAGAGGGGGGGAAAACCCCUUUGCCCUCAAUGUCAACAGCUCGCAGUCAAG | -0.114 |
| GGUCACGUCUCAAUCAACUCAGUCUCCAGGGAAACCCCUGGCUUUUUCAACAGCUCGCAGUCAAG | -0.125 |
| GGUCACGUCUCAAUCAACUCUAUUUCCAGGGAAAACCCUGGUUUUUUCAACAGCUCGCAGUCAAG | -0.231 |
| GGUCACGUCUCAAUCAACUCAUCCUCCAGGGAAAACCCUGGUUAACUCAACAGCUCGCAGUCAAG | -0.194 |
| GGUCACGUCUCAAUCAACUCUAUCUCAGGAGUUUUCUCCUGCAUUCUCAACAGCUCGCAGUCAAG | -0.0426 |
| GGUCACGUCUCAAUCAACUCAUUUCCAGGAGUUUGCUCCUGCUUUCUCAACAGCUCGCAGUCAAG | -0.053 |
| GGUCACGUCUCAAUCAACUCUUCCCCAGGAGUUUACUCCUGCAUAUUCAACAGCUCGCAGUCAAG | -0.0729 |
